Experimental data from the supplement of paper PMC12217912.
This is one part of the list. Sequences were assembled here from the parent chain. Inactive controls read about 0.05.

B1: TEV protease; numbered along this chain (parent)
chain: MGESLFKGPRDYNPISSSICHLTNESDGHTTSLYGIGFGPFIITNKHLFRRNNGTLVVQSLHGVFKVKDTTTLQQHLVDGRDMIIIRMPKDFPPFPQKLKFREPQREERICLVTTNFQTKSMSSMVSDTSCTFPSGDGIFWKHWIQTKDGQCGSPLVSTRDGFIVGIHSASNFTNTNNYFTSVPKNFMELLTNQEAQQWVSGWRLNADSVLWGGHKVFMVKPEEPFQPVKEATQL

Variants of: B1
Assay: raw area under fraction-flipped curve 0-4 h after induction (AUC4h, not background-subtracted), DNA-recorder readout of cleavage of the substrate (dimensionless); higher = more cleavage of the substrate by the protease variant
Details: temperature: 34 °C; time window: 0-4 h after rhamnose induction
Description: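 In vivo DNA recorder in E. coli TOP10(DE3) ΔrhaA at 34 °C. Each TEVp single-site mutant (parent TEVp 0) is paired with a single-site variant of the 7-mer TEVs (canonical ENLYFQ|S). The substrate sits between flexible linkers in a Bxb1-sfGFP-TEVs-SsrA fusion, so cleavage stabilises Bxb1 and speeds flipping of a recombination array, read by NGS. The value is the raw area under the fraction-flipped curve over 0-4 h after rhamnose induction (AUC4h), with ≥20 reads per time point. It is not background-subtracted; inactive controls average about 0.047.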
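Also: Bxb1 expression induced with 0.2% (w/v) L-rhamnose at OD600 near 0.5, cultures sampled hourly, flipped fraction per protease–substrate barcode pair counted by paired-end Illumina sequencing.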

Row | Variant | area with substrate ENLYAQS | area with substrate ENLYDQS | area with substrate ENLYEQS | area with substrate ENLYGQS | area with substrate ENLYHQS | area with substrate ENLYLQS | area with substrate ENLYMQS | area with substrate ENLYNQS | area with substrate ENLYPQS | area with substrate ENLYRQS | area with substrate ENLYVQS | area with substrate ENLYYQS | area with substrate ENLYCQS | area with substrate ENLYIQS | area with substrate ENLYKQS | area with substrate ENLYQQS | area with substrate ENLYSQS | area with substrate ENLYWQS | area with substrate ENLYTQS
1 | P134T | 0.0379 | 0.0617 | 0.0574 | 0.0988 | 0.077 | 0.0636 | 0.057 | 0.0683 | 0.0563 | 0.0402 | 0.0924 | 0.0662 |  |  |  |  |  |  | 
2 | P134Y | 0.0658 | 0.0504 | 0.0604 | 0.0769 | 0.0643 | 0.0701 | 0.058 | 0.0468 | 0.0608 | 0.0554 |  | 0.085 | 0.0772 | 0.0856 | 0.0611 | 0.0637 | 0.0697 | 0.0623 | 
3 | G136F | 0.0695 | 0.0588 | 0.0668 |  | 0.0695 | 0.0895 | 0.0946 | 0.0724 | 0.026 |  | 0.128 | 0.0781 |  | 0.114 | 0.0544 |  | 0.0683 | 0.0887 | 0.0705
4 | G136K | 0.0481 | 0.054 | 0.0496 | 0.0645 | 0.0756 |  | 0.0714 | 0.0671 | 0.073 |  |  |  |  | 0.118 |  |  | 0.0659 |  | 
5 | W141H | 0.0642 | 0.0599 | 0.0579 | 0.0632 | 0.0641 | 0.0611 | 0.0645 |  | 0.0541 | 0.0499 | 0.0941 |  |  | 0.0932 | 0.0634 |  | 0.0598 | 0.0486 | 0.0513
6 | W144A | 0.0574 |  | 0.12 |  | 0.0782 | 0.064 | 0.112 | 0.0683 | 0.0613 | 0.0623 | 0.188 | 0.0647 |  | 0.139 | 0.0709 | 0.0939 | 0.0877 |  | 0.0728
7 | W144D | 0.0852 | 0.0694 |  | 0.0661 | 0.0637 |  | 0.0915 | 0.0678 | 0.0727 | 0.0334 |  |  |  |  | 0.0714 | 0.0703 | 0.0639 | 0.0716 | 
8 | W144F | 0.0774 |  | 0.0698 | 0.0673 | 0.0756 |  | 0.0755 |  |  |  |  | 0.0636 |  |  | 0.0218 |  | 0.0715 |  | 
9 | I145T | 0.0585 | 0.0558 | 0.0662 | 0.0661 | 0.0634 | 0.0872 | 0.0622 | 0.0749 | 0.0673 | 0.0491 | 0.13 | 0.0349 |  | 0.149 | 0.0465 | 0.0625 | 0.0792 | 0.0769 | 0.0752
10 | G150C | 0.0534 | 0.0677 | 0.0535 | 0.0559 | 0.0609 |  | 0.0583 | 0.0607 | 0.0588 |  | 0.0692 | 0.0536 | 0.0596 | 0.0538 | 0.0388 | 0.0586 | 0.0622 | 0.0628 | 
11 | G150N | 0.0679 |  |  | 0.0408 | 0.0569 |  | 0.0527 | 0.067 | 0.057 | 0.0505 |  | 0.0603 |  | 0.0968 | 0.0531 | 0.0686 | 0.05 | 0.0614 | 
12 | G150T | 0.0539 | 0.059 | 0.063 | 0.0638 | 0.0683 | 0.0661 | 0.0573 | 0.0572 | 0.0506 | 0.0625 | 0.0526 | 0.0726 | 0.0918 | 0.0622 | 0.0593 | 0.0594 | 0.0591 | 0.0576 | 0.0587
13 | C152T | 0.0537 | 0.0542 | 0.0572 | 0.0664 | 0.0561 |  | 0.057 | 0.0596 | 0.0636 |  | 0.0553 |  |  | 0.0538 |  |  | 0.0535 |  | 
14 | P155Q | 0.0522 | 0.049 | 0.0535 | 0.0537 | 0.0585 | 0.0437 | 0.0501 | 0.0491 | 0.0414 | 0.0518 | 0.0592 | 0.0427 | 0.0432 | 0.0539 | 0.0521 | 0.055 | 0.0557 | 0.0527 | 0.0541
15 | L156N | 0.0557 | 0.0606 | 0.0494 | 0.0531 | 0.0552 |  | 0.0367 | 0.0523 | 0.0627 |  | 0.0483 | 0.0451 | 0.0608 | 0.0489 | 0.049 | 0.0583 | 0.057 | 0.0462 | 0.0543
16 | V157G | 0.0523 | 0.0545 | 0.0558 | 0.0531 |  |  |  | 0.0448 | 0.0566 | 0.0568 |  |  |  | 0.0478 |  | 0.0294 | 0.0077 |  | 
17 | R160C | 0.0803 | 0.0551 | 0.0792 |  | 0.0574 | 0.0573 | 0.098 | 0.0782 | 0.0495 |  | 0.159 |  |  | 0.128 | 0.0572 | 0.11 | 0.0597 | 0.0902 | 0.084
18 | D161Q | 0.0321 | 0.0505 | 0.0558 | 0.0596 | 0.0518 |  | 0.0572 | 0.0472 |  | 0.0588 | 0.0645 |  | 0.0676 | 0.0584 | 0.0532 | 0.0546 | 0.0499 |  | 0.063
19 | V165C | 0.071 | 0.0579 | 0.0625 |  | 0.0651 |  | 0.0732 | 0.0745 |  |  | 0.117 | 0.0536 |  | 0.128 | 0.0764 | 0.06 | 0.0477 |  | 
20 | G166C | 0.0656 | 0.0428 | 0.068 |  | 0.0771 |  | 0.0594 | 0.0513 | 0.0505 | 0.0617 | 0.0649 |  | 0.0535 |  |  | 0.0036 | 0.0469 |  | 0.0422
21 | I167G | 0.051 | 0.0623 | 0.0688 | 0.0343 | 0.0517 |  | 0.0425 |  |  |  | 0.0501 |  |  |  | 0.0391 |  | 0.0491 |  | 0.0401
22 | H168P | 0.0598 | 0.0283 | 0.0602 |  | 0.0534 | 0.0603 | 0.0401 | 0.058 | 0.049 | 0.0644 |  |  |  |  | 0.0607 |  | 0.0192 |  | 0.0539
23 | H168T | 0.0655 | 0.0653 | 0.062 | 0.0611 | 0.0592 |  | 0.0616 | 0.0556 | 0.0644 |  | 0.0617 |  | 0.0805 | 0.0563 |  |  | 0.0557 | 0.0552 | 0.0581
24 | N172C | 0.0651 | 0.0664 |  |  |  | 0.0835 |  | 0.0734 | 0.0654 |  | 0.0765 |  |  | 0.064 |  | 0.0538 |  |  | 
25 | T174A | 0.065 | 0.0564 | 0.0563 |  | 0.0657 |  |  |  | 0.102 |  |  |  |  | 0.126 |  |  |  | 0.0617 | 
26 | T176E | 0.0695 | 0.0529 | 0.0648 | 0.0522 | 0.0637 |  | 0.0814 |  | 0.079 | 0.0598 | 0.1 | 0.0508 |  | 0.0597 | 0.0578 |  |  | 0.148 | 
